Changes are numbered by the printed parent chain. Results are given in words; binding and its absence hold for the method and conditions named. For some of these results: Binding seen in cells or lysates may run through a third protein. Some entries that bind do so weakly or less than the wild type. For some of these results: Sequences can lack the tags named with a protein.
Experiments:
[1] = molecular target: T1, MBP-fused Apc1-loop^500 WT fragment (Xenopus tropicalis, UniProt Q08D52 515-584); assay: condition: only in interphase extracts (no non-degradable cyclin B); pull-down; as a1 but in interphase extracts without non-degradable cyclin B (Appendix Fig S1); only the target purified
T1 construct: Apc1 (APC/C subunit 1), Xenopus tropicalis, loop^500, residues 515-584; Added unphosphorylated; becomes phosphorylated at CDK sites T532, T539 and S558 when incubated in anaphase egg extracts; MBP is PreScission-cleavable and His6 TEV-cleavable; also called MBP-Apc1-loop^500; CDK^- Apc1-loop^500; source: recombinant, purified as described previously (Fujimitsu & Yamano, 2020); not shown: MBP, …
T1 sequence (looked up): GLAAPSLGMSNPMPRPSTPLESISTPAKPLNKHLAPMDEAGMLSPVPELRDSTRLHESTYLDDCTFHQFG

[2] = molecular target: T1, MBP-fused Apc1-loop^500 WT fragment; assay: pull-down; MBP-fused Apc1-loop^500 fragments on amylose beads incubated in Xenopus egg anaphase extracts (interphase extracts with non-degradable cyclin B∆167) at 23°C for 60 min; washed with XB^CSF buffer and XB^CSF with 0.01% NP-40; endogenous Plx1 detected by immunoblotting; only the target purified
[3] = molecular target: T2, Apc1-loop^500 S566A/T567A (Xenopus tropicalis) (UniProt Q08D52); assay: as above
T2 sequence: T1 sequence (looked up) with S52A, T53A

[4] = molecular target: T3, MBP-fused Apc1-loop^500 2A (T532A/T539A) (Xenopus tropicalis) (UniProt Q08D52); assay: as above
T3 sequence: T1 sequence (looked up) with T18A, T25A

[5] = molecular target: T4, MBP-fused Apc1-loop^500 E562A (Xenopus tropicalis) (UniProt Q08D52); assay: as above
T4 sequence: T1 sequence (looked up) with E48A

[6] = molecular target: T5, MBP-fused Apc1-loop^500 T532A (Xenopus tropicalis) (UniProt Q08D52); assay: as above
T5 sequence: T1 sequence (looked up) with T18A

[7] = molecular target: T3, MBP-fused Apc1-loop^500 2A (T532A/T539A) (Xenopus tropicalis); assay: pull-down; MBP-fused Apc1-loop^500 on amylose beads incubated in anaphase extracts at 23°C for 1 h, then purified Plx1-PBD (10 µg or indicated amounts) added to the extract for 15 min; bound proteins by SDS-PAGE and Coomassie staining; both purified

Question: What does the source list for “Plx1 (polo-like kinase homolog in Xenopus laevis), endogenous (from UniProt P70032 1-598) (enzyme)”?
Answer: binding [1]: no binding; binding [2]: binds; binding [3]: binds; binding [4]: binds weakly; binding [5]: binds; binding [6]: binds

B1: Plx1-PBD WT (polo-box domain of Plx1) (domain or fragment, Xenopus laevis, UniProt P70032 362-598, looked up)
chain: EPADCYLSEMLQQLTCLNAVKPSERALIRQEEAEDPASIPIFWISKWVDYSDKYGLGYQLCDNSVGVLFNDSTRLIMYNDGDSLQYIERNNTESYLNVRSYPTTLTKKITLLKYFRNYMSEHLLKAGANTTPREGDELARLPFLRTWFRTRSAIILHLSNGTVQINFFQDHTKIILCPLMAAVSYIDEKREFRTYKLSLIQEFGCCKELASRLRYARTMVEKLQSSKSAVAHVKASA
notes: Plx1, Xenopus laevis, polo-box domain, amino acids 362-598; 3xFlag is PreScission-cleavable, His6 TEV-cleavable; cleavage is not reported; also called WT Plx1-PBD; source: E. coli BL21-CodonPlus (DE3), purified (Ni-NTA agarose)
Question: B1 was tested. Which binding [7] did it give?
Answer: no binding
